Some of the results follow. At the low end of the ranking the order means little.

For this test, the target named is SIX1-Q177R homeodomain (UniProt Q15475). In words: universal protein binding microarray. The note with it: Universal all-10-mer PBM (8x60K, AMADID 030236), 300 nM GST-tagged protein, Alexa Fluor 488 anti-GST; buffer, salt, pH and temperature not stated; high values mean tight binding; most listed sequences are background and not binding sites; double strand, one strand shown.
Regarding CCAGCGGG, the binding signal was 0.0601 E-score. With ACTGGCTG, the binding signal was determined as 0.132 E-score. In the case of CGCGTGTC it was 0.414 E-score; in that of TCCTCACA, 0.142 E-score; in that of GAGAACTC, -0.0893 E-score. For the sequence CCCTACCC, the binding signal was determined as 0.185 E-score. Regarding ACGCTGCG, the binding signal stood at 0.0139 E-score.

Consider AATCATAC, for which the binding signal is -0.0763 E-score.

ACCCACAG: the binding signal is 0.217 E-score.

Turning to AGTTACTA, the binding signal is -0.168 E-score. In the case of AATCAATA it was -0.0975 E-score; in that of CCAACCCC, 0.113 E-score; in that of CATGAGAC, -0.0249 E-score.

Regarding CGATGAAG, the binding signal is -0.0359 E-score. For AAATACAC, the binding signal was found to be 0.403 E-score.

On to GACACCCC, for which the binding signal was determined as 0.487 E-score. For AAAGGCTA, the binding signal is -0.287 E-score. In the case of AGAGAGAC it was -0.126 E-score; in that of GAATACTC, 0.0477 E-score. Take CCAATCAC: the binding signal was -0.185 E-score. Take GGAAAATA: the binding signal is -0.0264 E-score. With AGTGGGAT, the binding signal is 0.0827 E-score.

As to AGGCTGAT, the binding signal was -0.0609 E-score. With AAGACACC the figure was 0.471 E-score; with CCAATGAC, 0.0886 E-score; with GTACTGAC, 0.172 E-score. In the case of GACCGTGC it was -0.119 E-score; in that of ACAATCCT, -0.104 E-score; in that of ACTTGGAC, 0.0379 E-score. In the case of GCGGTGGA it was 0.0097 E-score.

In the case of AGATTTTC, the binding signal was -0.298 E-score. With AGCAGGTG the figure was 0.335 E-score. Take AGCACAAA: the binding signal is -0.19 E-score. In the case of ACCTTTGA, the binding signal was 0.142 E-score.

For the sequence AACAGTAC, the binding signal is -0.112 E-score.

On to ATCGCACC, for which the binding signal came out at 0.201 E-score.

As for GGGCGTGA, the binding signal came to 0.138 E-score. With AGAATCCC the figure was -0.102 E-score; with AGGACCTG, -0.0705 E-score; with ATGCCGTG, 0.0145 E-score. For the sequence CCCATTGA, the binding signal was -0.0596 E-score.

Take AGACTTCA: the binding signal was -0.146 E-score. With AGCTCTGC the figure was -0.247 E-score; with GGCTTCGA, -0.205 E-score. Regarding AGTATCGA, the binding signal worked out at 0.118 E-score. On to ACCACGCC, for which the binding signal is -0.0624 E-score.

In the case of ATGTAGCC, the binding signal is -0.13 E-score. For CGGAGACC, the binding signal was -0.0715 E-score. In the case of ATCCTTGG it was 0.0942 E-score. With ACGTGTCA the figure was 0.412 E-score. In the case of CCTTGAAA it was -0.0723 E-score; in that of GCGAGAGC, -0.202 E-score; in that of GCAGAGGC, -0.136 E-score. Take CCAAGGGG: the binding signal came out at 0.141 E-score. For AACCCGAT, the binding signal came out at 0.0773 E-score.

In the case of GAGCGCAC, the binding signal is -0.175 E-score.

On to AATCCTGC, for which the binding signal is -0.0533 E-score.

Turning to AACCCCAA, the binding signal came to 0.205 E-score. As to AGTTGTGG, the binding signal came out at 0.0218 E-score. With CCAGTTAA the figure was -0.0324 E-score; with CCCGTCCG, -0.0323 E-score. With ATAAGTCC the figure was -0.311 E-score; with GAACCTGA, -0.074 E-score; with ACTCCTTC, 0.0558 E-score. In the case of GACAGCGC it was -0.228 E-score; in that of GTCAATTA, -0.00902 E-score; in that of CGAGAGCA, 0.0136 E-score.

As to CTTGCTTA, the binding signal was -0.0101 E-score. Turning to CGGCCCCG, the binding signal is -0.236 E-score. In the case of CATGTCGG, the binding signal came to 0.0377 E-score. With GGAGATTA the figure was -0.00214 E-score; with CGGGTTCC, 0.239 E-score. In the case of ATCTAAGA it was -0.328 E-score; in that of CGAGATGC, -0.167 E-score; in that of GGACCCAC, 0.0449 E-score.

TATCCAGA: the binding signal was -0.0383 E-score. ATGGTGCC: the binding signal is 0.115 E-score. With CGGTCATC, the binding signal was -0.106 E-score.

GGTGTGGA: the binding signal turned out to be 0.369 E-score. As to AGATTTCG, the binding signal is -0.246 E-score. With AGTGCCTG the figure was -0.255 E-score; with CCTACCAA, -0.005 E-score.

Take CGTAGCAG: the binding signal was -0.0211 E-score. In the case of GCCTCTCA it was -0.149 E-score; in that of ATACCGCA, 0.179 E-score.

Turning to CTTGCGGC, the binding signal is -0.153 E-score. On to ATTCAGGA, for which the binding signal was -0.136 E-score. Consider CCCATGCG, for which the binding signal is 0.0262 E-score. With GAGGTGCC, the binding signal stood at 0.111 E-score.

On to GACTACCC, for which the binding signal came out at 0.137 E-score.

With CATGCATG, the binding signal was -0.00523 E-score. In the case of CTTCAAGA it was -0.0254 E-score. With CGGGGGGC the figure was 0.204 E-score; with AAACTATT, -0.144 E-score. Regarding CTCGCCAA, the binding signal was -0.159 E-score.

As for AGAATTCA, the binding signal was -0.282 E-score.

With ACACTTTA, the binding signal came to 0.343 E-score.

Regarding CGAATAAA, the binding signal was -0.139 E-score. AATATCGT: the binding signal is -0.0639 E-score. As for ACAGCCCG, the binding signal was -0.148 E-score. Take CATTGCCA: the binding signal was -0.223 E-score. For the sequence CGGGGTGC, the binding signal was 0.219 E-score. As for CGAAAGCC, the binding signal was -0.0382 E-score.

As to ACAGCGGA, the binding signal stood at 0.0505 E-score.

On to CTGGGTCA, for which the binding signal was 0.0597 E-score. Take ACCGATAA: the binding signal was -0.0289 E-score. In the case of ACCGGACG it was 0.0703 E-score. With AACCTGTC the figure was -0.163 E-score. Turning to CTGACGGC, the binding signal is -0.264 E-score. As for GTAGTCCA, the binding signal amounted to 0.013 E-score. In the case of GAAAATAC it was -0.0305 E-score.

On to CACGTGGG, for which the binding signal came to 0.16 E-score. With ATTCCCGG the figure was 0.0176 E-score; with ATAAATGA, -0.204 E-score; with TATACTAA, 0.0632 E-score. In the case of CACATTAA it was 0.0375 E-score; in that of CCACTCTA, 0.032 E-score. With CCACAGTA, the binding signal worked out at 0.0136 E-score.

Take TAACCAAA: the binding signal was -0.125 E-score. In the case of CGGTACCA, the binding signal is -0.113 E-score.

For CAAGGATC, the binding signal amounted to 0.0468 E-score. As to AGATGTCA, the binding signal is -0.0908 E-score. With CATCGGAA the figure was -0.264 E-score. Turning to CTATCTGA, the binding signal is -0.214 E-score. With AATAGAAG the figure was -0.211 E-score. Turning to CCCCCGGG, the binding signal turned out to be 0.195 E-score.

For the sequence ACGAAGAT, the binding signal is -0.156 E-score. With ATACAGGG the figure was -0.0967 E-score. In the case of AGCCTTAG it was -0.184 E-score; in that of CTGACGAC, -0.0223 E-score; in that of AGTGCCCG, -0.0908 E-score. For the sequence CGCGACGC, the binding signal is -0.0656 E-score. In the case of GCGGGATA it was 0.0556 E-score; in that of CATGGCAC, 0.13 E-score; in that of GCATTAAA, -0.084 E-score. For the sequence AAAATGGT, the binding signal is 0.0314 E-score. In the case of AAGCCACT it was -0.184 E-score; in that of CAAGAGAA, -0.101 E-score.

For ATGTCGCA, the binding signal was -0.0538 E-score. In the case of CGATCGAG it was 0.00245 E-score; in that of GCCACAGC, -0.0179 E-score. In the case of AGTCGGGC it was 0.0596 E-score; in that of CTACGCAC, 0.042 E-score.

Regarding ACTCCGAT, the binding signal was 0.182 E-score. In the case of ACGTCAAT it was -0.171 E-score; in that of GGGAGCAC, 0.0751 E-score. For ATTTCGGC, the binding signal was found to be 0.00181 E-score. Consider GCAGCCGA, for which the binding signal is -0.218 E-score. Regarding GTACTCGA, the binding signal stood at 0.19 E-score. In the case of AGCCTGTG it was -0.056 E-score; in that of GTGTTCCA, 0.361 E-score; in that of GAGGCCGC, -0.169 E-score.

Turning to AATTGTTG, the binding signal is -0.114 E-score. With CCCCCCTC, the binding signal amounted to 0.163 E-score.

As to CCATAGGA, the binding signal is -0.065 E-score.

In the case of ACATAGGC, the binding signal was -0.124 E-score. On to ACGTTACC, for which the binding signal was 0.0853 E-score. In the case of CTGTACGC it was -0.0547 E-score; in that of CTTTATAC, 0.104 E-score; in that of ATGCTCTG, -0.167 E-score. Consider CTGCCTAA, for which the binding signal is -0.102 E-score. With CCTTTTTA, the binding signal was -0.00268 E-score. With ACCAGACC the figure was 0.12 E-score; with ACCTCGAC, 0.084 E-score; with CCTTCAAA, -0.187 E-score.

CAAACGTG: the binding signal is -0.0446 E-score. Regarding CGCACAAA, the binding signal is -0.116 E-score.

As for AATTGGGG, the binding signal amounted to 0.17 E-score. With CAGCGATC the figure was -0.0427 E-score; with ATACCTTG, 0.0936 E-score; with CACAGACC, 0.0243 E-score.

CAGCCCGG: the binding signal was -0.0357 E-score.

The values above are taken from paper PMC10668032.
